Measured values: the supplement of paper PMC3334620
Whole data set: some 33,000 sequences, median “E-score (-0.5 to 0.5)” near -0.032, cut for the highest 2% near 0.36. The list shows a part of the results.

target: T1, Sko1 (UniProt Q02100); assay: PBM E-score (8-mer binding enrichment) (E-score (-0.5 to 0.5)); higher = stronger / more preferred TF binding; most listed sequences are background and not binding sites; details: protein concentration: 200 nM; construct: GST-full length
T1 sequence: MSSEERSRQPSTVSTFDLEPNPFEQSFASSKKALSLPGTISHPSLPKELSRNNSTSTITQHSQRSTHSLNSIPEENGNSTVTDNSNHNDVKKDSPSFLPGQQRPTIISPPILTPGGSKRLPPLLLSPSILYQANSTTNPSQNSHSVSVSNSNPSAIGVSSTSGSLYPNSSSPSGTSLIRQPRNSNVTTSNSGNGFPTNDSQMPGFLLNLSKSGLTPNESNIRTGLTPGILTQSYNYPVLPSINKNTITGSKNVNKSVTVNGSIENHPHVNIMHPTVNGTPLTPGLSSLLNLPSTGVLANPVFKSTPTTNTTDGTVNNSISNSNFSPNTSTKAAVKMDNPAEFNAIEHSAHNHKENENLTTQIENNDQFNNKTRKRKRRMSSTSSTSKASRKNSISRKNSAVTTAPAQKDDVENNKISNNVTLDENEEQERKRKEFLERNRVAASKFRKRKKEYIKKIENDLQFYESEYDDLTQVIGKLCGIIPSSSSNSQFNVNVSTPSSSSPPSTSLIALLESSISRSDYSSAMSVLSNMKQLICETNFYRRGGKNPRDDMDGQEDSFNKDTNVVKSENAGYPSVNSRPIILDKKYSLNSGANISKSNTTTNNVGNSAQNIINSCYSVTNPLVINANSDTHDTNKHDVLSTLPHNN
Summary of the method: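 GST-tagged yeast TFs (full-length or DNA-binding domain) were made by PURExpress in vitro transcription/translation and applied at about 100-200 nM to universal all-10-mer Agilent arrays. The arrays were made double-stranded by primer extension, on fresh or once-stripped slides. Bound protein was detected with fluorescent anti-GST, and scans were normalised with masliner. Each ungapped eight-base word, pooled with its reverse complement, received an E-score (modified Wilcoxon-Mann-Whitney statistic) from the Universal PBM Analysis Suite.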

Row | Sequence | PBM E-score
1 | AATTTGGC | 0.0233
2 | ACGAGCGC | 0.00482
3 | ATTCGCCG | 0.0444
4 | CGACACCA | -0.0439
5 | CGCGTAAG | 0.352
6 | CAATTATC | 0.17
7 | GTAGCGAA | 0.0889
8 | CAGCGCCA | -0.133
9 | TCTTTAAA | 0.125
10 | AGGGTTTA | 0.099
11 | ATTGAGGG | -0.27
12 | AGACTCAC | -0.129
13 | CCGCTCCC | -0.345
14 | ATAAGTAT | 0.0774
15 | ATATCTAG | 0.00505
16 | CTTCGTTA | 0.161
17 | CAGGTTAG | -0.279
18 | CGGCCGCC | -0.339
19 | AATTGTGC | 0.12
20 | CCTATCGA | -0.0618
21 | CTCCCACC | -0.366
22 | CGTCAGGC | 0.272
23 | GAGGCCGA | -0.183
24 | GATGCCAA | -0.0661
25 | CCACGACG | 0.11

Row | Sequence | PBM E-score
26 | CGTGCTCA | 0.202
27 | TAATAGGA | 0.125
28 | GCGTACGA | 0.238
29 | ACTTTATG | 0.109
30 | CGTCTAGA | -0.0458
31 | TGACCACA | -0.0673
32 | GGCCGGCA | -0.223
33 | CGCACTCA | 0.115
34 | CGATAGAG | -0.0857
35 | ATTCCAAA | 0.0535
36 | AAACATAG | 0.0378
37 | ACTTCTAG | -0.279
38 | AAGTGCGG | 0.0424
39 | CCATTGTC | -0.146
40 | ACAATAGA | 0.0568
41 | GCCAGTAA | -0.27
42 | ACATGTTC | -0.0196
43 | ATTGGGGG | -0.233
44 | AGCCGTAG | -0.312
45 | CAGATCCG | -0.161
46 | AAATAGCC | -0.0119
47 | CACAACTG | -0.121
48 | GGCAGCAC | -0.103
49 | CTTGGAAC | -0.0974
50 | GGTCCGGA | -0.132

Row | Sequence | PBM E-score
51 | CGATGTTC | -0.297
52 | ATTGGTGC | -0.0524
53 | GCGGCGCA | -0.241
54 | GAACAAGA | 0.104
55 | CTATACAA | 0.055
56 | TAATAATA | 0.203
57 | CGGAGCGC | -0.239
58 | GTTCTGAA | 0.162
59 | TAGGCTCA | -0.19
60 | CAGCACCA | -0.333
61 | ACTAAGTG | 0.00171
62 | TCTTGACA | 0.0467
63 | CGGTCTAA | 0.0521
64 | CGGGCGTA | -0.179
65 | GAGGAGCA | -0.0843
66 | ATCGTTTC | 0.0108
67 | CCAGAACA | -0.0689
68 | GCAAAGCC | -0.191
69 | AAAACTAG | -0.0988
70 | CATTATCC | 0.083
71 | CACGGTAC | -0.188
72 | GCGTTCTA | 0.00581
73 | AAAGATGG | -0.0167
74 | GAAGTATA | 0.0355
75 | GAGCATGA | -0.0347

Row | Sequence | PBM E-score
76 | CCTGCACC | -0.238
77 | CAATCTGA | 0.128
78 | CTTTGTCC | -0.117
79 | CAGCTCAC | -0.141
80 | ACCCCGCC | -0.123
81 | ACCAACAG | -0.199
82 | CCCGCCCA | 0.0374
83 | AACCTGGT | -0.154
84 | ACTAGCCT | -0.103
85 | ACCAGGAA | -0.212
86 | ACACCCCT | -0.00504
87 | GCGTACCA | 0.138
88 | AGTGGCGC | -0.0278
89 | GGCAGACC | -0.39
90 | AGGGTGTG | -0.0439
91 | GAGTCGGC | -0.211
92 | ACCTTCGT | 0.0282
93 | CGTCAGAA | 0.37
94 | CTCTTTCA | -0.0826
95 | CTCCATGC | -0.184
96 | AAATGCTT | -0.0922
97 | AATCCGCC | -0.257
98 | CCGATCGG | -0.0358
99 | ACGGATGA | 0.0509
100 | TCAGCACA | 0.0395

Row | Sequence | PBM E-score
101 | ATCCAGAT | -0.136
102 | ACGTTAGT | 0.304
103 | CCCCTTCA | -0.174
104 | GTTCGGAA | -0.215
105 | GGCTAGGA | -0.149
106 | ACTGACTC | -0.281
107 | GATCCATA | 0.0287
108 | GAACGCCA | -0.0535
109 | ACCCGGTA | 0.0488
110 | TGCTTGAA | 0.168
111 | CTGAGGTC | -0.181
112 | CAAGTGAC | 0.185
113 | CTGGGTTA | -0.09
114 | GAGGTTCC | -0.182
115 | CCTCTTGC | -0.198
116 | AAAGCTAT | 0.055
117 | CATAGAGC | -0.213
118 | AATGCACC | 0.0446
119 | CTGGAAGC | -0.237
120 | AATTAACC | 0.0168
121 | ATACGACA | 0.363
122 | ATAAGAAT | 0.195
123 | AAAGGCCA | -0.118
124 | AGCAACGC | 0.0819
125 | ACATTACA | 0.28

Row | Sequence | PBM E-score
126 | ACCAGTAA | 0.0811
127 | GGCCTCAC | -0.0829
128 | AAACTGTG | 0.0182
129 | GATGACAA | 0.256
130 | AGGCGCTC | -0.226
131 | CCTTGCAG | -0.234
132 | TAACTCAA | 0.165
133 | GCGAACAC | -0.178
134 | ATCTGCTG | 0.00474
135 | ATATGCGA | 0.206
136 | CCAGGGGC | -0.338
137 | CTCCCCCA | -0.312
138 | CTCACCTC | -0.0338
139 | CCTCGGGC | -0.181
140 | ACGGAGGA | -0.114
141 | CCACATTA | -0.0674
142 | CGCGAGTA | -0.0393
143 | AACGACGG | 0.0454
144 | CATTGTGA | -0.00774
145 | CTAGTCGA | -0.114
146 | ACCAGACA | -0.0538
147 | GACCATGA | 0.0708
148 | CTGAACCA | -0.044
149 | TGAATCCA | 0.0184
150 | CAACGAGC | -0.126

Row | Sequence | PBM E-score
151 | AATCGTGC | 0.148
152 | GTCCAAAA | 0.0853
153 | AACGACAT | 0.286
154 | AAAAAGTC | -0.0118
155 | TGCAGACA | -0.0242
156 | CTTTCAGA | 0.033
157 | AAGGCTGC | -0.176
158 | CGACGGCG | 0.0652
159 | ACTTACCT | -0.0598
160 | CGCCAATA | 0.0829
161 | AATGCCTA | -0.0242
162 | GAAGTAAA | 0.0539
163 | AGTGAGAC | -0.0781
164 | TCATGGGA | -0.034
165 | CTAGGCGC | -0.0323
166 | CTATACCA | -0.0255
167 | CGAGTCAG | -0.129
168 | AACTTGAT | 0.208
169 | AGTAGTAT | 0.0161
170 | GGACGTAC | 0.275
171 | ACAGCAGC | -0.157
172 | CACTCCAG | -0.14
173 | CAGCTGAG | -0.108
174 | AGCCGGTG | -0.216
175 | ATCCTACC | -0.222

Row | Sequence | PBM E-score
176 | CTCGCAGA | -0.235
177 | ACGTCCAT | 0.39
178 | AGGTGATC | 0.188
179 | GAGGGTAC | -0.209
180 | ACTAATGA | 0.243
181 | GGAATTGA | 0.0859
182 | ACGTATTA | 0.468
183 | GGGTTACA | 0.0387
184 | CACTCGTA | 0.0905
185 | TCCGCTCA | -0.187
186 | ATTGAAAC | 0.132
187 | GCACCTTA | -0.062
188 | CAGGATTC | -0.0613
189 | CGGCCACG | -0.0945
190 | CGATCACG | 0.215
191 | CGCGAAGC | 0.185
192 | ACAGTCTC | -0.202
193 | AGCGCAGG | -0.246
194 | ACTTAGAG | -0.0119
195 | CGGACTAC | 0.0634
196 | CAGCAGGC | -0.22
197 | GTAGTCGA | 0.0988
198 | AGTACATG | -0.00609
199 | ACCTGACA | -0.0471
200 | GGGTGTAC | -0.085

Row | Sequence | PBM E-score
201 | ATTACTGG | -0.135
202 | ACTATGTG | -0.0357
203 | CCCAGTCA | -0.303
204 | CCGGATCC | -0.209
205 | CAGCGGTC | -0.332
206 | ACTTCCGG | -0.14
207 | ACCTGAAA | 0.0432
208 | AAGGGAGC | -0.317
209 | GATAAAGC | -0.012
210 | AAGCATGT | 0.0382
211 | CCGTCTGC | -0.109
212 | AGCCAAAT | -0.0216
213 | AAATGTCG | 0.159
214 | ACAACGAG | -0.0139
215 | ATGCGGTA | -0.0748
216 | TATTACAA | 0.221
217 | AATCTCAT | 0.117
218 | CAGTCACA | 0.0418
219 | CTAGGGGA | -0.363
